Test results from PubChem BioAssay (NCATS).
Several values for one entry are separate records, joined by “and”; a condition that tells them apart may be missing. Identical values can stand only once. Inconclusive results, whose numbers are uncertain, are shown with a selection of clear calls. A potency beside an inconclusive call is a rough fit, not a confirmed value. Activity calls are given as the source filed them. Calls come from the whole dose curve; as a rule, active = well fitted curve in the direction sought with a large enough effect; inconclusive = small, poorly fitted or top-dose-only effect, or another doubt; inactive = no such curve, though single readings can be large; an effect the other way counts as inactive or inconclusive.

Experiments:
[1] = qHTS of pediatric cancer cell lines to identify multiple opportunities for drug repurposing: Primary screen for DAOY cells (AID 1347090); settings: DAOY medulloblastoma viability, CellTiter-Glo luminescence, 48 h; activity change, negative = cytotoxic: at 46 µM (top of the series); note: nearly all actives have a fitted effect of over 55% in size;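 for activity change, negative = cytotoxic: plate controls were DMSO for no effect and bortezomib for full effect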
Outline: (§1)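 Eight- or eleven-point concentration series, 48 h treatment at 37 degrees C in growth media; readout CellTiter-Glo luminescence. Potency and efficacy were taken from the concentration-response curves.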

[2] = qHTS of pediatric cancer cell lines to identify multiple opportunities for drug repurposing: Primary screen for SJ-GBM2 cells (AID 1347091)
Outline: as §1

[3] = qHTS of pediatric cancer cell lines to identify multiple opportunities for drug repurposing: Primary screen for BT-37 cells (AID 1347094);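 for activity change, negative = cytotoxic: plate controls were DMSO for no effect and bortezomib for full effect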
Outline: (§2)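 Cells seeded at 500-1,000 cells/well in growth media, rested 5 hours at 37 degrees C, 5% CO2, then dosed; MIPE compounds at 11-point (from 0.78 nM) and NPC at 8-point (from 0.59 nM) final concentrations. Viability by CellTiter-Glo luminescence after 48 hours.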

[4] = qHTS of pediatric cancer cell lines to identify multiple opportunities for drug repurposing: Primary screen for Saos-2 cells (AID 1347097); note: nearly all actives have a fitted effect of over 40% in size; for activity change, negative = cytotoxic: % is set by controls: 0 for no effect and ±100 for the full control effect
Outline: as §2

[5] = qHTS of pediatric cancer cell lines to identify multiple opportunities for drug repurposing: Primary screen for SK-N-SH cells (AID 1347098); note: nearly all actives have a fitted effect of over 65% in size
Outline: (§3)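 Cells (500-1,000/well) rested 5 h, then received compounds for 48 h; metabolically active cells were measured by CellTiter-Glo luminescence. Final concentrations spanned up to 46 µM (MIPE, 11-point) or 0.59 nM-46 µM (NPC, 8-point) in primary screens, 11-point in follow-ups.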

[6] = qHTS of pediatric cancer cell lines to identify multiple opportunities for drug repurposing: Primary screen for BT-12 cells (AID 1347101); note: nearly all actives have a fitted effect of over 25% in size;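 for activity change, negative = cytotoxic: plate controls were DMSO for no effect and bortezomib positive control for full effect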
Outline: as §3

[7] = qHTS of pediatric cancer cell lines to identify multiple opportunities for drug repurposing: Primary screen for OHS-50 cells (AID 1347103); note: nearly all actives have a fitted effect of over 40% in size
Outline: as §3

[8] = qHTS of pediatric cancer cell lines to identify multiple opportunities for drug repurposing: Primary screen for control Hh wild type fibroblast cells (AID 1347106); note: nearly all actives have a fitted effect of over 55% in size
Outline: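 Viability after 48 h compound treatment at 37C, 500-1,000 cells/well, read as ATP luminescence with CellTiter-Glo. Primary screens used 11-point (MIPE, 0.78 nM-46 µM) or 8-point (NPC, 0.59 nM-46 µM) final concentrations; follow-up screens used 11-point dilutions.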

[9] = qHTS of pediatric cancer cell lines to identify multiple opportunities for drug repurposing: Primary screen for Rh30 cells (AID 1347107); note: nearly all actives have a fitted effect of over 75% in size; for activity change, negative = cytotoxic: % is set by controls: 0 for no effect and ±100 for the full control effect
Outline: (§4)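 Cells (500-1,000/well) in growth media were settled 5 h at 37 degrees C, then given compounds for 48 h. Viability was read as CellTiter-Glo luminescence. Primary runs used MIPE at 11 points (0.78 nM-46 µM) and NPC at 8 points (0.59 nM-46 µM); follow-ups used 11 points.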

[10] = qHTS of pediatric cancer cell lines to identify multiple opportunities for drug repurposing: Primary screen for SK-N-MC cells (AID 1347093); settings: SK-N-MC viability, CellTiter-Glo luminescence, 48 h; activity change, negative = cytotoxic: at 46 µM (top of the series)
Outline: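 Metabolically active cells were quantified by ATP-dependent luminescence (CellTiter-Glo, 15 min at room temperature) following 48 h treatment. Cells had been plated at 500-1,000 per well and settled for 5 h beforehand.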

[11] = qHTS of pediatric cancer cell lines to identify multiple opportunities for drug repurposing: Primary screen for NB-EBc1 cells (AID 1347095)
Outline: as §2

[12] = qHTS of pediatric cancer cell lines to identify multiple opportunities for drug repurposing: Primary screen for MG 63 (6-TG R) cells (AID 1347105); settings: MG 63 (6-TG R) viability, CellTiter-Glo, 48 h; activity change, negative = cytotoxic: at 46 µM (top of the series); note: nearly all actives have a fitted effect of over 50% in size; for activity change, negative = cytotoxic: % is set by controls: 0 for no effect and ±100 for the full control effect
Outline: as §2

[13] = qHTS of pediatric cancer cell lines to identify multiple opportunities for drug repurposing: Primary screen for U-2 OS cells (AID 1347096); note: nearly all actives have a fitted effect of over 50% in size
Outline: as §4

[14] = qHTS of pediatric cancer cell lines to identify multiple opportunities for drug repurposing: Primary screen for NB1643 cells (AID 1347099); note: nearly all actives have a fitted effect of over 50% in size
Outline: as §2

[15] = qHTS of pediatric cancer cell lines to identify multiple opportunities for drug repurposing: Primary screen for Rh41 cells (AID 1347108); note: nearly all actives have a fitted effect of over 70% in size;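 for activity change, negative = cytotoxic: luminescence drop marks cytotoxic hits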
Outline: as §2

[16] = qHTS of pediatric cancer cell lines to identify multiple opportunities for drug repurposing: Confirmatory screen for NB1643 cells (AID 1347109); settings: NB1643 neuroblastoma cell viability; activity change, negative = cytotoxic: at 45.9 µM (top of the series); note: nearly all actives have a fitted effect of over 45% in size
Outline: as §4

[17] = qHTS of pediatric cancer cell lines to identify multiple opportunities for drug repurposing: Primary screen for LAN-5 cells (AID 1347100); settings: LAN-5 neuroblastoma viability, CellTiter-Glo luminescence, 48 h; activity change, negative = cytotoxic: at 46 µM (top of the series)
Outline: as §4

[18] = qHTS of pediatric cancer cell lines to identify multiple opportunities for drug repurposing: Primary screen for Rh18 cells (AID 1347102); note: nearly all actives have a fitted effect of over 65% in size
Outline: as §4

[19] = qHTS of pediatric cancer cell lines to identify multiple opportunities for drug repurposing: Primary screen for RD cells (AID 1347104); note: nearly all actives have a fitted effect of over 55% in size
Outline: as §2
Potency is the fitted concentration of half-maximal effect; tags give direction and shape of the fitted curve.

Nc1nccc(-c2ccc3noc(-c4ccc(Cl)cc4)c3c2)n1
inconclusive: Potency [1] 14.8 µM [cytotoxic, partial curve] | Potency [2] 14.8 µM [cytotoxic, partial curve] | Potency [3] 21.7 µM [cytotoxic, partial curve] | Potency [5] 7.64 µM [cytotoxic, partial curve] | Potency [6] 30.6 µM [cytotoxic, single point] | Potency [7] 21.7 µM [cytotoxic, partial curve] | Potency [8] 33.2 µM [cytotoxic, single point]
inactive: Potency [4] | Potency [9]

CN(c1nccc(=O)[nH]1)C1CCN(c2nc3ccccc3n2Cc2ccc(F)cc2)CC1
inconclusive: Potency [1] 37.2 µM [cytotoxic, single point] | Potency [2] 33.2 µM [cytotoxic, single point] | Potency [10] 10.6 µM [cytotoxic, single point] | Potency [11] 33.2 µM [cytotoxic, single point] | Potency [4] 20.9 µM [cytotoxic, partial curve] | Potency [5] 24.1 µM [cytotoxic, partial curve] | Potency [7] 21.9 µM [cytotoxic, partial curve] and 24.3 µM [cytotoxic, partial curve] | activity change, negative = cytotoxic [12] -32.9% [cytotoxic]

Cc1[nH]nc2ccc(-c3cncc(OC[C@@H](N)Cc4ccccc4)c3)cc12
inconclusive: Potency [13] 2.35 µM [cytotoxic, full curve, poor fit] | Potency [7] 1.53 µM [cytotoxic, full curve, poor fit] | Potency [8] 11.8 µM [cytotoxic, full curve, poor fit]
active: Potency [1] 2.96 µM | Potency [2] 0.743 µM | Potency [4] 2.96 µM | Potency [5] 1.52 µM | Potency [14] 0.935 µM | Potency [15] 4.69 µM | Potency [16] 1.17 µM

CCOc1ccn(-c2ccc(F)cc2)c(=O)c1C(=O)Nc1ccc(Oc2ccnc(N)c2Cl)c(F)c1
inconclusive: Potency [1] 18.7 µM [cytotoxic, partial curve, poor fit] | Potency [3] 15.3 µM [cytotoxic, partial curve] | Potency [11] 2.96 µM [cytotoxic, full curve] | Potency [5] 27.1 µM [cytotoxic, partial curve] | Potency [14] 0.935 µM [cytotoxic, full curve] | Potency [6] 19.3 µM [cytotoxic, partial curve] | Potency [18] 10.5 µM [cytotoxic, partial curve] | Potency [12] 7.43 µM [cytotoxic, partial curve, poor fit] | Potency [8] 0.209 µM [cytotoxic, full curve, poor fit] | Potency [15] 20.9 µM [cytotoxic, partial curve] | Potency [16] 6.57 µM [cytotoxic, full curve]
active: Potency [2] 0.059 µM | Potency [17] 7.43 µM

C[C@]12CCC(=O)C=C1[C@@H]1CC1[C@H]1[C@H]3[C@@H]4C[C@H]4[C@@]4(CCC(=O)O4)[C@@]3(C)CC[C@H]12 (stereo partly specified)
inconclusive: Potency [2] 33.2 µM [cytotoxic, single point] | Potency [10] 37.2 µM [cytotoxic, single point] | Potency [17] 18.7 µM [cytotoxic, partial curve] | Potency [6] 24.3 µM [cytotoxic, partial curve]
inactive: Potency [1] | Potency [4] | Potency [15]
active: Potency [7] 19.3 µM

O=C1[C@H](Cc2ccc(O)cc2)N2C(=O)CCN(C(=O)NCc3ccccc3)[C@H]2CN1Cc1cccc2ccccc12
inconclusive: Potency [4] 5.9 µM [cytotoxic, partial curve] | Potency [5] 21.5 µM [cytotoxic, partial curve] | Potency [6] 7.69 µM [cytotoxic, full curve] | Potency [18] 7.43 µM [cytotoxic, full curve] | Potency [8] 4.69 µM [cytotoxic, full curve] | Potency [9] 9.35 µM [cytotoxic, partial curve] | Potency [15] 7.43 µM [cytotoxic, partial curve, poor fit]
active: Potency [1] 14.8 µM | Potency [2] 10.5 µM | Potency [3] 4.85 µM | Potency [14] 2.96 µM | Potency [17] 10.5 µM | Potency [7] 4.85 µM | Potency [19] 10.5 µM

Cc1ccc(NC(=O)c2cccc(C(C)(C)C#N)c2)cc1Nc1ccc2ncn(C)c(=O)c2c1
active: Potency [5] 24.1 µM | Potency [14] 18.7 µM | Potency [19] 1.18 µM
inconclusive: Potency [1] 23.5 µM [cytotoxic, partial curve] | Potency [2] 26.4 µM [cytotoxic, single point] | Potency [3] 5.44 µM [cytotoxic, partial curve] | Potency [13] 7.43 µM [cytotoxic, single point] | Potency [4] 16.6 µM [cytotoxic, partial curve] | Potency [17] 16.6 µM [cytotoxic, partial curve] | Potency [18] 6.62 µM [cytotoxic, partial curve] | Potency [7] 1.37 µM [cytotoxic, partial curve] | Potency [9] 18.7 µM [cytotoxic, partial curve] | Potency [15] 18.7 µM [cytotoxic, partial curve]

Cc1cc(C(C)Nc2ccccc2)c2nc(N3CCOCC3)cc(=O)n2c1 (stereo unspecified)
active: Potency [10] 0.132 µM
inconclusive: Potency [1] 7.43 µM [cytotoxic, partial curve, poor fit] | Potency [2] 3.72 µM [cytotoxic, partial curve] | Potency [3] 27.3 µM [cytotoxic, partial curve] | Potency [4] 8.33 µM [cytotoxic, partial curve] | Potency [5] 1.36 µM [cytotoxic, full curve] | Potency [14] 1.32 µM [cytotoxic, full curve] | Potency [17] 37.2 µM [cytotoxic, partial curve, poor fit] | Potency [18] 18.7 µM [cytotoxic, partial curve] | Potency [19] 3.32 µM [cytotoxic, partial curve, poor fit] | Potency [12] 0.372 µM [cytotoxic, full curve, poor fit] | Potency [15] 14.8 µM [cytotoxic, partial curve]

CN(C)CC(=O)N1CCC(c2ccc(NC(=O)c3ncc(C#N)[nH]3)c(C3=CCCCC3)c2)CC1
inconclusive: Potency [1] 29.6 µM [cytotoxic, single point] | Potency [3] 30.6 µM [cytotoxic, single point] | Potency [13] 23.5 µM [cytotoxic, single point] | Potency [12] 23.5 µM [cytotoxic, single point] | Potency [9] 16.6 µM [cytotoxic, partial curve] | Potency [15] 29.6 µM [cytotoxic, single point]
active: Potency [2] 18.7 µM | Potency [11] 23.5 µM | Potency [5] 1.21 µM | Potency [14] 18.7 µM | Potency [6] 30.6 µM | Potency [19] 18.7 µM

Cc1cnc(Nc2ccc(N3CCN(C)CC3)cc2)nc1Nc1cccc(S(=O)(=O)NC(C)(C)C)c1
inconclusive: Potency [2] 1.18 µM [cytotoxic, full curve]
active: Potency [1] 14.8 µM | Potency [10] 1.05 µM | Potency [4] 4.69 µM | Potency [5] 3.04 µM | Potency [14] 3.72 µM | Potency [6] 21.7 µM | Potency [18] 3.32 µM | Potency [8] 16.6 µM | Potency [15] 5.9 µM

COc1cc2ncn(-c3cc(OCc4ccccc4S(C)(=O)=O)c(C#N)s3)c2cc1OC
inactive: Potency [3] | Potency [6]
inconclusive: Potency [1] 14.8 µM [cytotoxic, partial curve] | Potency [2] 23.5 µM [cytotoxic, partial curve, poor fit] | Potency [4] 9.35 µM [cytotoxic, partial curve] | Potency [5] 24.1 µM [cytotoxic, partial curve] | Potency [14] 18.7 µM [cytotoxic, partial curve] | Potency [7] 34.3 µM [cytotoxic, single point] | Potency [19] 10.5 µM [cytotoxic, partial curve, poor fit] | Potency [8] 16.6 µM [cytotoxic, partial curve, poor fit] | Potency [9] 6.62 µM [cytotoxic, partial curve]
active: Potency [10] 13.2 µM
